According to the supplement of paper PMC3334620:
The full ranking holds about 33,000 sequences; the median of “E-score (-0.5 to 0.5)” is about -0.036, and the highest 2% start at about 0.37. This is one part of the list.

The sequences below were run against T1, Yer064c (UniProt P40041) (assay: PBM E-score (8-mer binding enrichment) (E-score (-0.5 to 0.5)); higher = stronger / more preferred TF binding; most listed sequences are background and not binding sites). Conditions: protein concentration: 200 nM; construct: GST-full length.
T1 sequence: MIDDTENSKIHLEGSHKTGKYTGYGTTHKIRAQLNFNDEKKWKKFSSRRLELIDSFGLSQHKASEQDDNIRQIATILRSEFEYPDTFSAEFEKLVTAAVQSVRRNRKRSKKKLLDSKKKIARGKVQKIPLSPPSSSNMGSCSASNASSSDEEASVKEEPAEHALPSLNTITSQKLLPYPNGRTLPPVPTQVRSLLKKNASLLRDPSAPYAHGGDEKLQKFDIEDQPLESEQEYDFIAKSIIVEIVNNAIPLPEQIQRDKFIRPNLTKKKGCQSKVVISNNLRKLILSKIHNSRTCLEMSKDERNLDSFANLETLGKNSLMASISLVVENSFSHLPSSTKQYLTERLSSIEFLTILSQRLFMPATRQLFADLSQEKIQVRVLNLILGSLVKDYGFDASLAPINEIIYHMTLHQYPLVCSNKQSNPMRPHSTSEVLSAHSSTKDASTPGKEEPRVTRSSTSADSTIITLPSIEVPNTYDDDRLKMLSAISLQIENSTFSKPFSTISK
Summary of the method: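 Full-length yeast transcription factors or their DNA-binding domains, GST-tagged and expressed with PURExpress, were applied at about 100-200 nM to universal all-10-mer Agilent arrays. These arrays had been made double-stranded by primer extension on fresh or once-stripped slides. Detection used fluorescent anti-GST, normalisation used masliner, and E-scores for ungapped eight-base words pooled with reverse complements came from the Universal PBM Analysis Suite.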

Row | Sequence | PBM E-score
1 | CGAAACCG | -0.08
2 | CAACTATC | 0.0162
3 | GCCACAGA | -0.241
4 | AAAAATGA | 0.218
5 | CAACAAGG | 0.0353
6 | CTGTGCAC | -0.129
7 | CGCGCAAA | -0.0184
8 | AAGGGCCA | -0.0545
9 | TCCACTAA | 0.0132
10 | CTGGGTAA | 0.133
11 | ATAACATA | -0.0209
12 | ACTGCGTA | 0.0638
13 | CGCCCGAG | -0.0276
14 | ACTCCTAA | 0.156
15 | AATGGCCA | -0.195
16 | ACCCCGAT | -0.266
17 | AGCTTTCA | -0.0821
18 | GGTTGGAC | -0.139
19 | CGACGGTC | -0.21
20 | AAGTGCTA | -0.0513
21 | AGCGTCGA | -0.102
22 | CAAACAGC | 0.0295
23 | CACCTTGC | -0.0602
24 | CAAACAAA | 0.0284
25 | AAGGGAGA | 0.039

Row | Sequence | PBM E-score
26 | TGGCTACA | 0.195
27 | CTCATCAC | 0.041
28 | GATCATGA | 0.288
29 | GCTGCATA | 0.0688
30 | TCCGGTCA | -0.00307
31 | AATGTGCT | -0.00735
32 | AGGGCCTA | -0.317
33 | ACGCTTTC | -0.198
34 | CTGGCATC | -0.242
35 | AAGGTATC | -0.193
36 | CTGGCGTA | -0.0778
37 | CTATGGTC | 0.0987
38 | AATCCGCA | 0.144
39 | ATACACGC | -0.0268
40 | ATCGGGTG | -0.0828
41 | CTGCCCCA | -0.11
42 | GAAACTAA | 0.0454
43 | GCTATGAA | -0.00466
44 | GTCCAGTA | -0.158
45 | ATTGTACG | 0.103
46 | AACACAAT | 0.175
47 | CACTACTG | -0.0157
48 | GAAGGCCA | -0.178
49 | AATAACAA | -0.0961
50 | CCAAGCCA | -0.0874

Row | Sequence | PBM E-score
51 | TCGTACAA | 0.237
52 | AAGAAAAG | 0.12
53 | GGGGCGTA | -0.269
54 | CACTACCG | -0.0981
55 | CCGGCTGA | 0.165
56 | ACTTTGTC | 0.0135
57 | CCAGCTCA | -0.197
58 | ATCTTATA | 0.0575
59 | CCCAGATA | -0.0728
60 | ATTGACCG | -0.0381
61 | CAACGCGG | -0.0834
62 | ACAGCCGC | -0.188
63 | ACCATTCA | 0.0643
64 | GGTGCGAA | -0.031
65 | TCGACACA | 0.0595
66 | ATAGAGTA | 0.134
67 | AAGATAGT | 0.229
68 | GGTTCAAC | 0.115
69 | ACAAGCCG | -0.166
70 | GAACACGA | 0.0999
71 | GTCGGGAA | 0.0416
72 | CCCCCGTA | -0.195
73 | CGGGCAAG | -0.131
74 | CTACTGAA | 0.26
75 | TACTTCAA | 0.126

Row | Sequence | PBM E-score
76 | CCTACCTC | -0.111
77 | CCCATAGC | -0.102
78 | ATGACCCA | 0.294
79 | CTATATTA | 0.204
80 | AGGGGACA | -0.224
81 | ATTGTAGG | 0.077
82 | CCCTGGAG | -0.18
83 | CCAAATTC | -0.112
84 | ATACGTAC | -0.0382
85 | AAGAAGTG | -0.154
86 | ATTACAGA | 0.172
87 | CGTTCATC | -0.195
88 | CATGTCTC | 0.345
89 | CAAGGTAC | -0.187
90 | CGTCTGAG | 0.0663
91 | CGATAAGA | 0.186
92 | CAACGTAA | 0.0311
93 | ATAATTGC | -0.174
94 | AGAGTTGG | -0.0749
95 | GGTGGCAA | -0.121
96 | CCCTGAGC | 0.0214
97 | AGCTTATA | -0.281
98 | ACTTCACC | 0.109
99 | ACCATCAG | -0.0406
100 | CATTGGAA | 0.0795

Row | Sequence | PBM E-score
101 | AATCTCCA | -0.0439
102 | CAAAGTAG | -0.00121
103 | CGGGGGAC | -0.0523
104 | ACTATAGG | 0.119
105 | ACTCGACT | 0.294
106 | GACTTCTA | 0.28
107 | AGGCAGAC | -0.0717
108 | AGTGAAAT | 0.143
109 | CCTAAGTC | 0.276
110 | CCTGAACA | -0.103
111 | GAGCCCAC | -0.116
112 | ACGGTGGA | -0.044
113 | CCTCTAAG | 0.0103
114 | CTGGCCTC | -0.291
115 | GGGCGTAA | -0.277
116 | AACTTCAG | -0.0277
117 | AGGAGTTC | -0.135
118 | CGCAAACC | -0.205
119 | GTGATTGA | 0.401
120 | GGTTGAAA | 0.00794
121 | AAGTGTAC | 0.0702
122 | AGGCATGC | -0.067
123 | CCCATGTA | 0.0302
124 | CGCGAGAC | 0.127
125 | AAGGAAGA | 0.101

Row | Sequence | PBM E-score
126 | ACCTGCTG | -0.051
127 | AAACCCGA | 0.0219
128 | GGCCTCTA | -0.16
129 | TCCATGGA | 0.0904
130 | GAGATAGA | -0.206
131 | ATCAAGTG | 0.148
132 | TATGCCCA | -0.243
133 | AAATGCAC | -0.271
134 | TAGTGTAA | -0.0832
135 | CCATATTA | -0.0209
136 | ACAGGCAT | -0.147
137 | AGCCGGAG | -0.00437
138 | AGGATCGA | -0.13
139 | CCTGAACC | 0.103
140 | GTATACAC | 0.111
141 | CCATGTCA | 0.0043
142 | GGCAGCCC | -0.361
143 | GAAGGCAC | -0.123
144 | AGCAAGCG | -0.213
145 | CTTAGTGC | -0.0473
146 | GGGGACAC | -0.139
147 | CCTTGGAC | -0.111
148 | GTTGCGCA | -0.0205
149 | TGTCCAAA | -0.0925
150 | ATTCCGTC | 0.00574

Row | Sequence | PBM E-score
151 | GTGTCCGA | -0.115
152 | AAGACCTT | -0.109
153 | GGGGGTGA | 0.0959
154 | AACCCACT | -0.0489
155 | CACCGGGC | -0.0144
156 | AGGAGGAT | -0.277
157 | AAGCCTAC | -0.182
158 | CCAGCGAG | -0.045
159 | ACCAGCCT | -0.262
160 | GCTTGTCC | -0.123
161 | GTTAAAAA | 0.0739
162 | ATCAATTC | 0.0434
163 | CCCGCTTC | -0.194
164 | CTTGGAAA | -0.0507
165 | AGACCGAC | -0.0493
166 | GCCACCGA | -0.0215
167 | ACGTTATC | -0.143
168 | AGCACTGA | 0.191
169 | ATCCTGAC | 0.172
170 | AACAGCCT | -0.224
171 | CCCAGGGA | -0.258
172 | TGGAGTAA | 0.17
